According to PubChem BioAssay AID624417 (National Center for Advancing Translational Sciences (NCATS), 2012):
About 6,400 (1.6%) of roughly 410,000 compounds were called active. Inconclusive means that the source gave no clear call. Such entries were picked first, then a sample of the others. Calls come from the whole dose curve; as a rule, active = well fitted inhibition curve with a large enough effect; inconclusive = small, poorly fitted or top-dose-only effect; inactive = no such curve, though single readings can be large or run the other way. Potencies of inconclusive entries are left out as doubtful fits.

molecular target: Glucagon-like peptide 1 receptor (Homo sapiens) (UniProt P43220); test: qHTS of GLP-1 Receptor Inverse Agonists (Inhibition Mode); details: HEK293 GLP-1R CRE-luciferase, luminescence, 24 h, GLP-1R form is constitutively active; activity change, negative = inhibition: at 38.3 µM (top of the series) unless noted; note: nearly all actives have a fitted effect of over 55% in size
In short: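 Luminescence readout: a drop in cAMP-driven luciferase signal flags inverse agonism at a constitutively active GLP-1R stably expressed in HEK293. Compound exposure lasted 24 hr at 37 deg C, 5% CO2.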
% is set by controls: 0 for no effect and ±100 for the full control effect; potency is the fitted concentration of half-maximal effect; tags give direction and shape of the fitted curve.

UniProt P43220, sequence (P43220 whole entry, looked up): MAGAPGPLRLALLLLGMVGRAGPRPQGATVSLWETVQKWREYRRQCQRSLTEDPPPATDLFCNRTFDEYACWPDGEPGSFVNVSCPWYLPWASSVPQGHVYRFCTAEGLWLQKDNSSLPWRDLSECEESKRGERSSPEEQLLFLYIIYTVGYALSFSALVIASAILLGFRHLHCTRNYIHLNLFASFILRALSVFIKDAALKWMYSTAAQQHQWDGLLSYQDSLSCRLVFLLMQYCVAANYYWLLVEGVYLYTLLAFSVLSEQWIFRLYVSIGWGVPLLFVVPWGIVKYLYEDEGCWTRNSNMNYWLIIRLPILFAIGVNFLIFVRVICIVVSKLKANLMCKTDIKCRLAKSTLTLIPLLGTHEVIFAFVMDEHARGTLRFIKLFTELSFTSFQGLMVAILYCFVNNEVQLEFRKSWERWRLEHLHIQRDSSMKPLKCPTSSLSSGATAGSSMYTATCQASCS

Row | Structure (SMILES) | Potency | activity change, negative = inhibition
1 | O=C(NCc1cccc(F)c1)c1ccc2nc(CCc3ccccc3)oc2c1 | inconclusive [inhibitor, single point] | –
2 | CC(OC(=O)C1CCN(c2ccc(C(F)(F)F)cn2)CC1)C(=O)Nc1cccc([N+](=O)[O-])c1 (configuration not stated) | inconclusive [inhibitor, single point] | –
3 | O=C(CCCCn1c(=O)[nH]c2ccsc2c1=O)NCc1ccc2c(c1)OCO2 | – | inactive: 10.8%
4 | CCOC(=O)c1cc2c(=O)n3ccccc3nc2n(CC2CCCO2)c1=NC(=O)c1ccc(F)cc1 (configuration not stated) | – | inactive: 5.36%
5 | CCCn1c2ccccc2c2cnn(CC(=O)NCCCN3CCN(c4ccccc4)CC3)c(=O)c21 | inconclusive [inhibitor, partial curve, poor fit] | –
6 | COc1ccc(CC(N)c2csc(NC(=O)NCCc3ccc(OC)c(OC)c3)n2)cc1 (configuration not stated) | inconclusive [inhibitor, partial curve] | –
7 | O=C(CN(c1ccccc1)S(=O)(=O)c1ccc(Cl)cc1)Nc1ccccc1C(=O)N1CCCC1 | inconclusive [inhibitor, single point] | –
8 | O=C(NC1CCCCC1)C(c1ccc2ncccc2c1)N(Cc1ccccc1)C(=O)c1cccs1 (configuration not stated) | inconclusive [inhibitor, partial curve, poor fit] | –
9 | CCC(=O)N1c2ccc(S(=O)(=O)CCC(=O)N3CCN(c4ccc(F)cc4)CC3)cc2CC1C (configuration not stated) | – | inactive: -17.8%
10 | CCn1c(=N)n(CC(O)COc2ccc(C)cc2)c2ccccc21 (configuration not stated) | inconclusive [inhibitor, partial curve, poor fit] | –
11 | O=C(NC(=S)Nc1ccc(N2CCCCC2)cc1)c1cccs1 | inconclusive [inhibitor, full curve, poor fit] | –
12 | CCn1c(/C=C2\C(=O)N(C(C)C)c3ccccc32)nc2ccccc2c1=O | inconclusive [inhibitor, single point] | –
13 | CCN(CC)CCC(c1ccc(OC)cc1)c1c(O)cc(OC)cc1OC (configuration not stated) | inconclusive [inhibitor, single point] | –
14 | COc1ccc(CNC(=O)COC(=O)CNC(=O)c2sc3ccccc3c2Cl)cc1OC | – | inactive: 2.66%
15 | COc1cccc(NC(=O)c2cc(-c3ccc(OC)cc3OC)nc3ccccc23)c1 | inconclusive [inhibitor, single point] | –
16 | Cc1cccc(N2CCN(C(=O)Cc3ccc(Br)cc3)CC2)c1C | inconclusive [inhibitor, single point] | –
17 | Nc1nc(NC(=O)c2cccc(S(=O)(=O)N3CCCCCC3)c2)nc(-c2ccccc2)n1 | – | inactive: 7.48%
